# Measured values from the supplement of paper PMC3334620.
# Whole data set: some 33,000 sequences, median “E-score (-0.5 to 0.5)” near -0.016, cut for the highest 2% near 0.31. The list shows a part of the results.
# Target: Cst6 (UniProt P40535)
# Experiment: PBM E-score (8-mer binding enrichment) (E-score (-0.5 to 0.5)); higher = stronger / more preferred TF binding; most listed sequences are background and not binding sites
# Details: protein concentration: 200 nM; construct: GST-DNA-binding domain
# Summary of the method: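 For each ungapped eight-base word taken together with its reverse complement, the Universal PBM Analysis Suite assigned an E-score. Binding data came from GST-tagged yeast transcription factors, applied at about 100-200 nM, on universal all-10-mer Agilent arrays made double-stranded by primer extension. Fluorescent anti-GST marked bound protein, and scans were normalised with masliner.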
row,Sequence,PBM E-score
1,CAGCATGG,0.0361
2,AGCTCGTG,-0.0841
3,GCCTCCAC,-0.248
4,ACCGATCC,-0.26
5,AAACGTTT,0.0411
6,CTGCACGA,-0.0231
7,CCTTTAGC,-0.14
8,CATACCGC,0.0301
9,AAACAGTA,0.0552
10,GCATATGA,0.263
11,AATGGGCG,-0.174
12,AAGAGTTA,0.0327
13,CGAGCCTA,0.011
14,GTCACCAA,0.315
15,AATGGGGA,-0.165
16,TGGGGGAA,-0.351
17,CCACGGTA,-0.166
18,ACGCGCTG,-0.0795
19,GACACAAC,0.139
20,TCCTAGAA,-0.0938
21,ATAGGGCC,-0.241
22,TCCGGGCA,-0.223

row,Sequence,PBM E-score
1,CCGAGTTC,-0.063
2,CCTCGATC,-0.163
3,CGATACGC,-0.0748
4,GAAACCAA,0.0453
5,AAGCGCGC,0.0196
6,ACGTGCTG,-0.0423
7,CTGTGCCC,-0.158
8,AGTGTTCA,0.046
9,GAGGAGAC,-0.261
10,ACCCGTCC,-0.13
11,ATTCTACA,0.169
12,AGAGGGCC,-0.25
13,AAATTGGG,0.0787
14,TACTTAGA,0.0722
15,ACCAGGCA,-0.212
16,CTAACGCC,-0.0434
17,GTGGGATA,-0.0138
18,ATCAGTGG,-0.0501
19,ACATTGGG,-0.176
20,AGGGTTAT,-0.0713
21,CCATGAGA,-0.0341
22,GCTATGTA,-0.00788

row,Sequence,PBM E-score
1,AATATGGC,-0.0866
2,AGTGCACA,-0.217
3,CAAAATGC,0.0958
4,AGCCTGTC,-0.211
5,AGAGAGCC,-0.113
6,ATGTTTTA,0.173
7,AGCATCTG,-0.162
8,TAACCTGA,0.00914
9,TTGATCAA,0.181
10,ACGGACGA,0.0449
11,CAGTAACA,0.0927
12,CCAAGCCC,-0.239
13,GTTGCGGA,-0.0156
14,TACAACCA,0.135
15,CTTTTATA,0.178
16,ACGAATCC,0.153
17,AGCTCTCC,-0.29
18,CCGCAGTC,-0.0875
19,CCTTACAG,-0.0515
20,ATTATGGC,0.0901
21,CAAAATGA,0.251
22,GTGGTATA,0.0731

row,Sequence,PBM E-score
1,AACATAAT,0.246
2,CCTTATCC,-0.224
3,CCCCCTGA,-0.273
4,ACGAGCAA,-0.194
5,AGGGGGCA,-0.303
6,CGATCCCA,-0.146
7,AAGAAACT,0.0695
8,ATCTGTTA,0.16
9,CTATCGTA,0.179
10,CAATTTTC,-0.00958
11,AGATCCTC,-0.28
12,ACCATGAG,-0.171
13,CAATGAAC,0.0418
14,ACACCACG,-0.0337
15,CTACGGAG,-0.148
16,GCCAGACC,-0.174
17,AGGGCTTG,-0.0617
18,CAAGCTAC,-0.223
19,CGGGATAG,-0.118
20,AGCTGGAG,-0.304
21,ATGCGCCC,0.0613
22,ATCGTTTA,0.224

row,Sequence,PBM E-score
1,CGTTGGGA,-0.00116
2,GACAGTAA,0.118
3,TGAATAAA,0.257
4,ATGAAGGG,-0.175
5,ACAATTCC,0.134
6,ACAACGAA,0.0473
7,CGCCGAAG,0.0651
8,ACCACTGG,0.07
9,GCCCAGGC,-0.318
10,ACTGCAAT,0.0816
11,ACTCGCGA,0.168
12,GACGCGCC,0.101
13,AGCAGCAG,0.00412
14,CGACCACA,-0.165
15,CCGTGTCG,0.0544
16,ACAGAGCC,-0.106
17,GTCAACTA,0.163
18,ACAGCGGT,-0.0574
19,GGCGTTAA,0.0974
20,ATCACGGA,0.157
21,CTACGTCA,0.493
22,CACGTTAG,0.123
